For 14 molecules, binding signal results are on record in article PMC12136788.

T1: UNK ZnF1-3 (human, UniProt Q9C0B0 31-174)
T1 sequence: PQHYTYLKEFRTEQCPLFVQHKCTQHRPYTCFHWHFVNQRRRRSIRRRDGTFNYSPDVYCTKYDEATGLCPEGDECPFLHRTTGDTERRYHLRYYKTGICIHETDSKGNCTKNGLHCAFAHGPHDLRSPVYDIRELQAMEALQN

B1: chr4:128759998:128759999:+_ENSMUSG00000028793_ENSMUST00000168461|mus_hu|FALSE|FALSE (ssRNA)
RNA: GGGAGUUCUACAGUCCGACGAUCUGCACCAAGACUGGCUGUGUCUUUGGGGAAAAUUUCCUUUUGGACAUCGGCUUGAACUUCUAACCUGCUAUAUUUUCCCUUGCCACUGGAGAGAAUGCCGCCACUCAGCGUGCCCCCUGACAACAGAGGAUUGAGCAUCA
B2: chr2:9628331:9628332:+_ENSG00000134330_ENST00000482918|hu_hu|motif|central (ssRNA)
RNA: GGGAGUUCUACAGUCCGACGAUCUUCUGCUACAUCCCGCCAGUAAGGAAGCAGCAAAGGUAGAGAAGAGACCUUUUUCUCGGUCAAAGGCCAGAGAUGCGAGAACAAAAAUUCAUUCCCCUUUGGAGACAAAUGUAGUCCAUCCAACAGAGGAUUGAGCAUCA
B3: chr9:100389865:100389866:-_ENSG00000136925_ENST00000341170|hu_hu|motif|central (ssRNA)
RNA: GGGAGUUCUACAGUCCGACGAUCACAGUGAAGCAGAUAUUCCUUUCAGUUAAAUACCUCCCGCCAGUCCUGAUCCUUUCGGAGGUCUCUCUUCCCUGCACUGUCUCCGCCUAGCAAUUGUCACUGCUCACCGCCCUCGAGCCUCAACAGAGGAUUGAGCAUCA
B4: chr4:42069135:42069136:+_ENSG00000014824_ENST00000513699|hu_hu|FALSE|FALSE (ssRNA)
RNA: GGGAGUUCUACAGUCCGACGAUCGCUGCUAUUAUAACUCCCAAGACUGCAGCAGUAUCCUCCAAUAAUAUCACAUUUGUACUAGGAUCACGACUUUCCAUUACAUACUUGUAAAAUGACAUUCCUUUAGCCCGAGCAUUCCUACAACAGAGGAUUGAGCAUCA
B5: chr4:17845017:17845018:+_ENSG00000109805_ENST00000514176|hu_mus|hu_hu_hu_mus_False|68_78 (ssRNA)
RNA: GGGAGUUCUACAGUCCGACGAUCGCUCUCUUAACUUGUAUCUUCAUUAAGGAACUCGCAAGGUUAAGUUUACUUUUUCUGUAGCGCAGCUGUUUUGGCUCGUCUGGGUAAUCUCAUCUUCAUUUCUGAUGGUGGUUCAUGAUCCAACAGAGGAUUGAGCAUCA
B6: chr1:163117127:163117128:-_ENSG00000143248_ENST00000313961|hu_mus|hu_hu_hu_mus_False|48_58 (ssRNA)
RNA: GGGAGUUCUACAGUCCGACGAUCUGCUACAAAGGAUGUAACUCAACUCACAGGGCAACUUUUGGAAGCCUGACCAGAUUACUACUUGAUUAACUCCUUAUAAAAUUCAGAGCGCACAAAGCGGGGCAGAGAAUCCUUCUCCAUCAACAGAGGAUUGAGCAUCA
B7: chr17:45757422:45757423:+_ENSG00000108424_ENST00000290158|hu_hu|motif|central (ssRNA)
RNA: GGGAGUUCUACAGUCCGACGAUCUACAUCCUUCCCAAAUGCUGUACAUAAGUCCCCUAUUAGUCCAGCAGCACAAGCGGCGGCUCCAUCUGUGUGAUCCUCAUCUCCAGCAAUGUGGUCAAUGAAAGACAGAAUAAAUUCUACCAACAGAGGAUUGAGCAUCA
B8: chr7:107556004:107556005:+_ENSG00000091140_ENST00000440410|hu_hu|FALSE|FALSE (ssRNA)
RNA: GGGAGUUCUACAGUCCGACGAUCGAUGCGUUGAAAGUUUUUAGAUAUCUCCAUAUCAAUUCCAACUCCACCUACAUGACCUAAAAAUUCAACUGCUGUCACAUCUGCACCAAGUCUUUGCCAAACUGAACCCAAUUCUACACCCAACAGAGGAUUGAGCAUCA
B9: chr19:16212804:16212805:+_ENSG00000167460_ENST00000300933|hu_mus|hu_hu_hu_mus_False|8_38 (ssRNA)
RNA: GGGAGUUCUACAGUCCGACGAUCAACAAUUCUGGAGUGAAGGAAAGAUGUAACAUGGAACAGCAUUAAAGCUCAGUCAGAAGGCACAUGGGCAACAAUGACUAUUUCAGCAUUCUCGCUUGGAAUGUGCUUGAGAAAUCUGUUCAACAGAGGAUUGAGCAUCA
B10: chr5:146798188:146798189:-_ENSG00000113657_ENST00000343218|hu_mus|FALSE|FALSE (ssRNA)
RNA: GGGAGUUCUACAGUCCGACGAUCCUUCCCGUUGGCCUCGAUGGUCUUCACACCUCCGGGGACAAUCAGAUUGUCUCCAAUUUGCUUUAUUAAGCCAUCCUCCAUGUAAAUAUCAGCAUAAAAGGACUGAUCAUCAUUGACGAUCAACAGAGGAUUGAGCAUCA
B11: chr20:57609950:57609951:-_ENSG00000101166_ENST00000355937|hu_mus|motif|central (ssRNA)
RNA: GGGAGUUCUACAGUCCGACGAUCGAUCUUUUGUUUAGAUCAAAAGUCACAGCCUUACCCCACCUCAUUAAAAAAAAAGAUCGGCCGGAAAUAAUUGUGUCUUUUAAAUAACAAAUAAUAUGAUGCCAGCUUGAGAGUCCUGGACAACAGAGGAUUGAGCAUCA
B12: chr3:9412954:9412955:+_ENSG00000134077_ENST00000452837|hu_mus|hu_hu_hu_mus_False|58_58 (ssRNA)
RNA: GGGAGUUCUACAGUCCGACGAUCGGUUGAUAUCUCUUCUUUGAUGGCUGGAUUUUCAUAAUAGUCCAAGAUAUGUGAAUCUAAAGCGCUGCUGGCAUGCUUUUUCUUACCAUCUUUCUCAUCUGCUUUGUCUCCUUGUCCACACAACAGAGGAUUGAGCAUCA
B13: chr11:108043965:108043966:-_ENSG00000149308_ENST00000278612|hu_hu|FALSE|FALSE (ssRNA)
RNA: GGGAGUUCUACAGUCCGACGAUCAGAAUUAUCUUGGCAAUUUGAUAGCUGUGACAUAACUGGUUCUAACACAUUAAUUUCUAUUUUACUCUUGUGAACUUCACUAGAAUCUGAUGACUUGGAACCAUGAAAAUUAAUUUUAAGCAACAGAGGAUUGAGCAUCA
B14: chr14:102378876:102378877:+_ENSG00000078304_ENST00000445439|hu_hu|motif|central (ssRNA)
RNA: GGGAGUUCUACAGUCCGACGAUCAGACAUUUUCAUAUACAACGUUAGUGAAAUCGAGACCCCCCCCAUGGUGAAGACAUAUAUUCCGGUCUUAUAAAAACAUUCAAGUAACCCUGGGCGUUUUCAUGUUAUUCUCUUUUUUAGCAACAGAGGAUUGAGCAUCA

The other results are listed elsewhere or left out.

The target of the assay is T1, UNK ZnF1-3. Put plainly: nsRBNS (natural sequence RNA bind-n-seq); RBNS binding buffer (assumed for nsRBNS): 25 mM Tris pH 7.5, 150 mM KCl, 3 mM MgCl2, 0.01% Triton X-100, 500 ug/ml BSA, 20 U/ml SUPERase-In, 4 C; UNK is unkempt and MSI1 is Musashi-1; names of the RNAs are library labels; protein concentration not given here; high values mean tight binding.
As to B1, the binding signal stood at 0.905 enrichment R.

Regarding B2, the binding signal came out at 1.31 enrichment R.

B3 displayed a binding signal of 1.02 enrichment R.

B4 had a binding signal of 1.11 enrichment R.

Take B5: the binding signal amounted to 0.352 enrichment R.

In turn, B6 registered a binding signal of 1.31 enrichment R.

In turn, B7 gave a binding signal of 1.42 enrichment R.

Regarding B8, the binding signal turned out to be 1.31 enrichment R.

B9 yielded a binding signal of 1.46 enrichment R.

As to B10, the binding signal stood at 0.979 enrichment R.

B11: the binding signal is 2.21 enrichment R.

Consider B12, for which the binding signal was 0.423 enrichment R.

B13: the binding signal stood at 0.814 enrichment R.

In turn, B14 came in with a binding signal of 1.33 enrichment R.
